According to patent US8648074B2, “Substituted octahydropyrrolo[1,2-a]pyrazine sulfonamides as calcium channel blockers” (AbbVie Inc., priority 2011, dated 2014):

Biological target: human Cav2.2 (Homo sapiens, UniProt Q00975)
Test: In vitro assessment of calcium channel activity using FLIPR (Ca2+ influx in IMR32 cells)
Type: cell-based
Conditions: IMR32 cells endogenously expressing human Cav2.2; Calcium 4 dye, 60 minute pre-incubation, 2 μM nifedipine, depolarized with 80 mM KCl; average of at least two runs unless marked *

Row | Structure (SMILES) | IC50
1 | O=S(=O)(c1cccc(-c2ccccc2)c1)N1CCN2C[C@H](Oc3cnc(C4CC4)cn3)C[C@H]2C1 [Example 103, (7R,8aS)-2-(biphenyl-3-ylsulfonyl)-7-[(5-cyclopropylpyrazin-2-yl)oxy]-octahydropyrrolo[1,2-a]pyrazine] | 2290 nM
2 | N#Cc1cc(C(F)(F)F)cc(S(=O)(=O)N2CCN3C[C@H](Oc4cnc(C5CC5)cn4)C[C@H]3C2)c1 [Example 64, 3-{[(7R,8aS)-7-[(5-cyclopropylpyrazin-2-yl)oxy]hexahydropyrrolo[1,2-a]-pyrazin-2(1H)-yl]sulfonyl}-5-(trifluoromethyl)benzonitrile] | 810 nM
3 | Cc1cccc(S(=O)(=O)N2CCN3C[C@H](Oc4cnc(C5CC5)cn4)C[C@H]3C2)c1 [Example 145, (7R,8aS)-7-[(5-cyclopropylpyrazin-2-yl)oxy]-2-[(3-methylphenyl)-sulfonyl]octahydropyrrolo[1,2-a]pyrazine] | 3120 nM
4 | O=S(=O)(CCCC(F)(F)F)N1CCN2C[C@H](Oc3cnc(C4CC4)cn3)C[C@H]2C1 [Example 219, (7R,8aS)-7-[(5-cyclopropylpyrazin-2-yl)oxy]-2-[(4,4,4-trifluorobutyl)-sulfonyl]octahydropyrrolo[1,2-a]pyrazine] | > 30000 nM
5 | O=S(=O)(c1cccc2ccccc12)N1CCN2C[C@H](Oc3cnc(C4CC4)cn3)C[C@H]2C1 [Example 155, (7R,8aS)-7-[(5-cyclopropylpyrazin-2-yl)oxy]-2-(1-naphthylsulfonyl)-octahydropyrrolo[1,2-a]pyrazine] | 1040 nM
6 | O=S(=O)(c1ccc(C(F)(F)F)cc1)N1CCN2C[C@H](Oc3cncc(C4CC4)n3)C[C@H]2C1 [Example 26, (7R,8aS)-7-[(6-cyclopropylpyrazin-2-yl)oxy]-2-{[4-(trifluoromethyl)phenyl]-sulfonyl}octahydropyrrolo[1,2-a]pyrazine] | 1360 nM
7 | N#Cc1ccccc1S(=O)(=O)N1CCN2C[C@H](Oc3cnc(C4CC4)cn3)C[C@H]2C1 [Example 146, 2-{[(7R,8aS)-7-[(5-cyclopropylpyrazin-2-yl)oxy]hexahydropyrrolo[1,2-a]-pyrazin-2(1H)-yl]sulfonyl}benzonitrile] | 4350 nM
8 | O=S(=O)(c1cccc(N2CCOCC2)n1)N1CCN2C[C@H](Oc3cnc(C4CC4)cn3)C[C@H]2C1 [Example 59, (7R,8aS)-7-[(5-cyclopropylpyrazin-2-yl)oxy]-2-{[6-(morpholin-4-yl)pyridin-2-yl]sulfonyl}octahydropyrrolo[1,2-a]pyrazine] | 1620 nM
9 | O=S(=O)(c1cccc(C(F)(F)F)c1)N1CCN2C[C@@H](Oc3cnc(C4CC4)cn3)C[C@@H]2C1 [Example 18, (7S,8aR)-7-[(5-cyclopropylpyrazin-2-yl)oxy]-2-{[3-(trifluoromethyl)phenyl]-sulfonyl}octahydropyrrolo[1,2-a]pyrazine] | 530 nM
10 | O=S(=O)(c1ccc(Br)c(C(F)(F)F)c1)N1CCN2C[C@H](Oc3cnc(C4CC4)cn3)C[C@H]2C1 [Example 128, (7R,8aS)-2-{[4-bromo-3-(trifluoromethyl)phenyl]sulfonyl}-7-[(5-cyclopropylpyrazin-2-yl)oxy]octahydropyaolo[1,2-a]pyrazine] | 4140 nM
11 | N#Cc1cccc(S(=O)(=O)N2CCN3C(=O)C(Cc4cccc(C(F)(F)F)c4)C[C@H]3C2)c1 (stereo partly drawn) [Example 225, 3-{[(8aS)-6-oxo-7-[3-(trifluoromethyl)benzyl]hexahydropyrrolo[1,2-a]-pyrazin-2(1H)-yl]sulfonyl}benzonitrile] | 625 nM
12 | O=S(=O)(c1ccc(C(F)(F)F)cn1)N1CCN2C[C@H](Oc3cnc(C4CC4)cn3)C[C@H]2C1 [Example 67, (7R,8aS)-7-[(5-cyclopropylpyrazin-2-yl)oxy]-2-{[5-(trifluoromethyl)pyridin-2-yl]sulfonyl}octahydropyrrolo[1,2-a]pyrazine] | 1800 nM
13 | O=S(=O)(c1ccc(C(F)(F)F)cc1Cl)N1CCN2C[C@@H](Nc3cccc(C(F)(F)F)n3)C[C@H]2C1 [Example 16, (7S,8aS)-2-{[2-chloro-4-(trifluoromethyl)phenyl]sulfonyl}-N-[6-(trifluoromethyl)pyridin-2-yl]octahydropyrrolo[1,2-a]pyrazin-7-amine] | 550 nM
14 | CC(F)(F)c1cccc(S(=O)(=O)N2CCN3C[C@H](Oc4cnc(C5CC5)cn4)C[C@H]3C2)c1 [Example 109, (7R,8aS)-7-[(5-cyclopropylpyrazin-2-yl)oxy]-2-{[3-(1,1-difluoroethyl)-phenyl]sulfonyl}octahydropyrrolo[1,2-a]pyrazine] | 1610 nM
15 | O=S(=O)(c1cccc(C(F)(F)F)n1)N1CCN2C[C@H](Oc3cnc(C4CC4)cn3)C[C@H]2C1 [Example 66, (7R,8aS)-7-[(5-cyclopropylpyrazin-2-yl)oxy]-2-{[6-(trifluoromethyl)pyridin-2-yl]sulfonyl}octahydropyrrolo[1,2-a]pyrazine] | 460 nM
16 | O=S(=O)(c1ccc(C(F)(F)F)cc1)N1CCN2C[C@@H](Oc3cnc(C4CC4)cn3)C[C@H]2C1 [Example 50, (7S,8aS)-7-[(5-cyclopropylpyrazin-2-yl)oxy]-2-{[4-(trifluoromethyl)phenyl]-sulfonyl}octahydropyrrolo[1,2-a]pyrazine] | 1570 nM

Row | Structure (SMILES) | IC50
17 | Cc1nc(C(F)(F)F)ccc1S(=O)(=O)N1CCN2C[C@H](Oc3cnc(C4CC4)cn3)C[C@H]2C1 [Example 177, (7R,8aS)-7-[(5-cyclopropylpyrazin-2-yl)oxy]-2-{[2-methyl-6-(trifluoromethyl)pyridin-3-yl]sulfonyl}octahydropyrrolo[1,2-a]pyrazine] | 950 nM
18 | CC(C)c1cnc(O[C@@H]2C[C@H]3CN(S(=O)(=O)c4cccc(C(C)(C)C)c4)CCN3C2)cn1 [Example 117, (7R,8aS)-2-[(3-tert-butylphenyl)sulfonyl]-7-[(5-isopropylpyrazin-2-yl)-oxy]octahydropyrrolo[1,2-a]pyrazine] | 470 nM
19 | CC(C)(C)c1ccc(CO[C@@H]2C[C@H]3CN(S(=O)(=O)c4cccc(C(F)(F)F)c4)CCN3C2)cc1 [Example 97, (7R,8aS)-7-[(4-tert-butylbenzyl)oxy]-2-{[3-(trifluoromethyl)phenyl]-sulfonyl}octahydropyrrolo[1,2-a]pyrazine] | 1850 nM
20 | N#Cc1cccc(S(=O)(=O)N2CCN3C[C@H](Oc4ccc(C(F)(F)F)cn4)C[C@H]3C2)c1 [Example 227, 3-{[(7R,8aS)-7-{[5-(trifluoromethyl)pyridin-2-yl]oxy}hexahydropyrrolo[1,2-a]pyrazin-2(1H)-yl]sulfonyl}benzonitrile] | 2620 nM
21 | O=S(=O)(c1cc(C(F)(F)F)ccc1Cl)N1CCN2C[C@H](Oc3cnc(C4CC4)cn3)C[C@H]2C1 [Example 172, (7R,8aS)-2-{[2-chloro-5-(trifluoromethyl)phenyl]sulfonyl}-7-[(5-cyclopropylpyrazin-2-yl)oxy]octahydropyaolo[1,2-a]pyrazine] | 1210 nM
22 | O=S(=O)(c1cc(Cl)sc1Cl)N1CCN2C[C@H](Oc3cnc(C4CC4)cn3)C[C@H]2C1 [Example 140, (7R,8aS)-7-[(5-cyclopropylpyrazin-2-yl)oxy]-2-[(2,5-dichloro-3-thienyl)-sulfonyl]octahydropyrrolo[1,2-a]pyrazine] | > 30000 nM
23 | O=C(NC(c1ccccc1)c1ccccc1)[C@H]1C[C@H]2CN(S(=O)(=O)c3ccc(F)c(C(F)(F)F)c3)CCN2C1 [Example 39, (7S,8aS)—N-(diphenylmethyl)-2-{[4-fluoro-3-(trifluoromethyl)phenyl]-sulfonyl}octahydropyrrolo[1,2-a]pyrazine-7-carboxamide] | 1890 nM
24 | O=S(=O)(c1cccc(C(F)(F)F)c1)N1CCN2C[C@H](Oc3cccc(C4CC4)n3)C[C@H]2C1 [Example 92, (7R,8aS)-7-[(6-cyclopropylpyridin-2-yl)oxy]-2-{[3-(trifluoromethyl)-phenyl]sulfonyl}octahydropyrrolo[1,2-a]pyrazine] | 2380 nM
25 | O=S(=O)(c1cccc(C(F)(F)F)c1)N1CCN2C[C@H](Oc3ccc(Br)cn3)C[C@H]2C1 [Example 89, (7R,8aS)-7-[(5-bromopyridin-2-yl)oxy]-2-{[3-(trifluoromethyl)phenyl]-sulfonyl}octahydropyrrolo[1,2-a]pyrazine] | 1130 nM
26 | CC(C)(C)c1ccc(S(=O)(=O)N2CCN3C[C@H](Oc4cnc(C5CC5)cn4)C[C@H]3C2)cc1 [Example 56, (7R,8aS)-2-[(4-tert-butylphenyl)sulfonyl]-7-[(5-cyclopropylpyrazin-2-yl)-oxy]octahydropyrrolo[1,2-a]pyrazine] | 2900 nM
27 | O=C(N[C@H]1C[C@H]2CN(S(=O)(=O)c3ccc(C(F)(F)F)cc3)CCN2C1)c1ccc(F)cc1 [Example 2, 4-fluoro-N-[(7S,8aS)-2-{[4-(trifluoromethyl)phenyl]sulfonyl}-octahydropyrrolo[1,2-a]pyrazin-7-yl]benzamide] | 1730 nM
28 | Cc1cc(O[C@H]2C[C@H]3CN(S(=O)(=O)c4cccc(C(F)(F)F)c4)CCN3C2)ccc1F [Example 79, (7S,8aS)-7-(4-fluoro-3-methylphenoxy)-2-{[3-(trifluoromethyl)phenyl]-sulfonyl}octahydropyrrolo[1,2-a]pyrazine] | 1120 nM
29 | COCc1cccc(S(=O)(=O)N2CCN3C[C@H](Oc4cnc(C5CC5)cn4)C[C@H]3C2)c1 [Example 179, (7R,8aS)-7-[(5-cyclopropylpyrazin-2-yl)oxy]-2-{[3-(methoxymethyl)-phenyl]sulfonyl}octahydropyrrolo[1,2-a]pyrazine] | 1640 nM
30 | O=S(=O)(c1cccc(C(F)(F)F)c1)N1CCN2C[C@H](Oc3cccc(C(F)(F)F)n3)C[C@H]2C1 [Example 230, (7R,8aS)-2-{[3-(trifluoromethyl)phenyl]sulfonyl}-7-{[6-(trifluoromethyl)-pyridin-2-yl]oxy}octahydropyrrolo[1,2-a]pyrazine] | 629 nM
31 | O=C(N[C@H]1C[C@H]2CN(S(=O)(=O)c3cccc(C(F)(F)F)c3)CCN2C1)c1ccc(F)cc1 [Example 1, 4-fluoro-N-[(7S,8aS)-2-{[3-(trifluoromethyl)phenyl]sulfonyl}octahydropyrrolo[1,2-a]pyrazin-7-yl]benzamide] | 1150 nM
32 | CCc1ccc(S(=O)(=O)N2CCN3C[C@H](Oc4cnc(C5CC5)cn4)C[C@H]3C2)s1 [Example 164, (7R,8aS)-7-[(5-cyclopropylpyrazin-2-yl)oxy]-2-[(5-ethyl-2-thienyl)sulfonyl]-octahydropyrrolo[1,2-a]pyrazine] | 1910 nM
